In the supplement of paper PMC3334620:
In all, about 33,000 sequences were measured (“E-score (-0.5 to 0.5)”: median about -0.012, highest 2% from about 0.27 on). The list shows a part of the results.

These sequences were tested against T1, Vhr1 (UniProt P40522) (assay: PBM E-score (8-mer binding enrichment) (E-score (-0.5 to 0.5)); higher = stronger / more preferred TF binding; most listed sequences are background and not binding sites). Settings: protein concentration: 200 nM; construct: GST-full length.
T1 sequence: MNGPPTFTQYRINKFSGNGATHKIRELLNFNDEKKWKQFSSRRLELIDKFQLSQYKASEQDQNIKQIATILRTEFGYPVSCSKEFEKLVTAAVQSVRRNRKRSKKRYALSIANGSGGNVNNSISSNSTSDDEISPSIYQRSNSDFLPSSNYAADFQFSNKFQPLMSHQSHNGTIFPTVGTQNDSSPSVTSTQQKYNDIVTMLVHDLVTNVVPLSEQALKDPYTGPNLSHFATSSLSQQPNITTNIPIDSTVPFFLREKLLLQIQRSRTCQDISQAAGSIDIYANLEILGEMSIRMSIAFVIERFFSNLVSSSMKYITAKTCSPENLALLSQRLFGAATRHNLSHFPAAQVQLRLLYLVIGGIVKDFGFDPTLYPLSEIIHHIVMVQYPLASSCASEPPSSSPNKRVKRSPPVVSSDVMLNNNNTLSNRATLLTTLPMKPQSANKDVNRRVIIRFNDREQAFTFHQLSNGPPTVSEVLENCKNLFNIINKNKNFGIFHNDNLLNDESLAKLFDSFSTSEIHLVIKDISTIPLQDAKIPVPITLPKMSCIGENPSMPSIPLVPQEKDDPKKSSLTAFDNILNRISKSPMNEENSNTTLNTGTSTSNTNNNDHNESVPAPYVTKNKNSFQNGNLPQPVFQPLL
Summary of the method: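 Universal all-10-mer Agilent arrays, fresh or stripped once, were converted to double-stranded form by primer extension. GST-tagged yeast transcription factors from PURExpress in vitro transcription/translation, full-length or DNA-binding domain only, were applied at about 100-200 nM and detected with fluorescent anti-GST. After masliner normalisation, the Universal PBM Analysis Suite scored each ungapped eight-base word together with its reverse complement by E-score.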

First: AATGTTAG
Second: CACAAGCG
The “PBM E-score” value of the first is lower: -0.144 for the first, 0.0849 for the second.

First: GCTCCTGA
Second: CGGTTGCC
The “PBM E-score” value of the first is higher: 0.00917 for the first, -0.0155 for the second.

First: CGGAATAG
Second: TATCTTCA
The “PBM E-score” value of the first is higher: 0.069 for the first, -0.0949 for the second.

Compared with CAGTGTAC, TAACAATA is lower in “PBM E-score” value: 0.141 for the first, 0.0499 for the second.

Going from AATCAATG to GGTGCTAA, the “PBM E-score” value falls from 0.0855 to -0.166.

Compared with GTGTGAGA, AATCTACG is lower in “PBM E-score” value: 0.0943 for the first, 0.0537 for the second.

First: CACAACTA
Second: ATGGTTGA
The “PBM E-score” value of the first is lower: 0.159 for the first, 0.208 for the second.

Going from ACGGCCAC to CGCGTGGC, the “PBM E-score” value falls from -0.0418 to -0.199.

Compared with AATTCAGG, CTCACAAA is higher in “PBM E-score” value: -0.0295 for the first, 0.075 for the second.

Going from TAAGGATA to ATTATTCA, the “PBM E-score” value rises from 0.0424 to 0.163.

First: CCTTTATC
Second: CTCCCAGC
The “PBM E-score” value of the first is lower: -0.252 for the first, -0.0318 for the second.

Compared with AGACTACG, GAGGCTCA is lower in “PBM E-score” value: -0.00303 for the first, -0.143 for the second.

First: GCATACAC
Second: AAATATAG
The “PBM E-score” value of the first is lower: 0.0355 for the first, 0.103 for the second.

Compared with CATTTTGA, CGACCCCG is higher in “PBM E-score” value: -0.0193 for the first, 0.134 for the second.

Compared with CGCTTAAA, CGTAACGA is lower in “PBM E-score” value: -0.0453 for the first, -0.169 for the second.

Compared with CGTTCGCA, CCGGGTAG is lower in “PBM E-score” value: 0.0323 for the first, 0.00591 for the second.

First: ACTGCGGC
Second: CGCACCCC
The “PBM E-score” value of the first is higher: 0.0931 for the first, -0.00442 for the second.

First: TTAGCCAA
Second: TAACAGAA
The “PBM E-score” value of the first is higher: -0.0266 for the first, -0.069 for the second.

Compared with TAAGTGTA, GCTGGGAA is higher in “PBM E-score” value: -0.144 for the first, 0.0455 for the second.

First: ATCTCTCA
Second: AAGCGATG
The “PBM E-score” value of the first is higher: 0.155 for the first, -0.0712 for the second.

Compared with GGAGATTA, GAAAACAA is lower in “PBM E-score” value: 0.0348 for the first, -0.041 for the second.

Compared with TGGGCCAA, CAGGTGGG is higher in “PBM E-score” value: -0.255 for the first, -0.0876 for the second.

First: CAAGATAC
Second: ATAAGCAT
The “PBM E-score” value of the first is higher: -0.00685 for the first, -0.279 for the second.

Going from ATGTATAA to ATGGAAGA, the “PBM E-score” value falls from 0.111 to 0.0176.

Going from AATCCCAC to GCTCCAGA, the “PBM E-score” value falls from -0.0307 to -0.128.

First: CCCCAGCC
Second: CGTCGCCC
The “PBM E-score” value of the first is lower: -0.0671 for the first, -0.0332 for the second.

First: ATGTGGGC
Second: CATTACGC
The “PBM E-score” value of the first is higher: 0.0309 for the first, -0.0785 for the second.

Compared with ACGGACGG, CGATAGGA is higher in “PBM E-score” value: -0.00784 for the first, 0.129 for the second.

Compared with CACAGCTA, AGCGACAC is higher in “PBM E-score” value: 0.0884 for the first, 0.122 for the second.

First: AACTGTCG
Second: AATCCTCC
The “PBM E-score” value of the first is lower: -0.146 for the first, -0.0502 for the second.

First: ACGGCTGA
Second: CCTTCTTC
The “PBM E-score” value of the first is higher: 0.11 for the first, -0.233 for the second.

First: CGGTGATC
Second: TGAACGCA
The “PBM E-score” value of the first is higher: 0.04 for the first, 0.035 for the second.

Compared with AATCTTCG, AGCCGACA is higher in “PBM E-score” value: -0.0308 for the first, 0.0595 for the second.

Compared with CTATCTCC, TAAAAGCA is higher in “PBM E-score” value: -0.208 for the first, -0.146 for the second.

Going from AGAATAAT to TCTTGGAA, the “PBM E-score” value falls from 0.0882 to -0.0639.

Going from AGGCCACC to AGGCTCAC, the “PBM E-score” value rises from -0.0743 to -0.0235.

First: CTTCGGAA
Second: GACCCCCC
The “PBM E-score” value of the first is higher: 0.0346 for the first, -0.314 for the second.

Compared with ATACTTCG, AGCATTTC is lower in “PBM E-score” value: 0.00739 for the first, -0.185 for the second.

Compared with CACTTAAA, CCTCTACA is lower in “PBM E-score” value: -0.145 for the first, -0.195 for the second.

First: AAAGTTGA
Second: ATGTTTGG
The “PBM E-score” value of the first is lower: -0.3 for the first, 0.0148 for the second.

Compared with CCAACAAC, AAGCGCCG is lower in “PBM E-score” value: 0.101 for the first, -0.234 for the second.

Going from GATCTTGA to GGACGAAA, the “PBM E-score” value falls from 0.156 to -0.114.

Compared with GCCATGCC, GCATTGGA is lower in “PBM E-score” value: 0.00234 for the first, -0.166 for the second.

Compared with GAAGGGTA, ATACTAAT is higher in “PBM E-score” value: 0.0935 for the first, 0.238 for the second.

Going from GTGGGTTA to CATAATAC, the “PBM E-score” value falls from 0.149 to -0.0362.

First: CAGATATG
Second: ATTCTAGC
The “PBM E-score” value of the first is higher: 0.0938 for the first, -0.0864 for the second.

First: TCAAAGAA
Second: ACAAGCGG
The “PBM E-score” value of the first is lower: -0.349 for the first, -0.0447 for the second.

First: AATAGACC
Second: GATGTCAC
The “PBM E-score” value of the first is lower: -0.0852 for the first, 0.157 for the second.

Compared with ACCGTAAT, ATGAGAAC is higher in “PBM E-score” value: -0.133 for the first, -0.00399 for the second.

Going from ATCATGAC to ACTATCAA, the “PBM E-score” value falls from 0.335 to 0.112.

First: CCAGCCGA
Second: CGGAACTC
The “PBM E-score” value of the first is higher: 0.0506 for the first, 0.0444 for the second.

Going from CCCTTGAC to CAACTATG, the “PBM E-score” value rises from -0.152 to 0.0994.

Compared with CAGGACTA, CGATTTCA is higher in “PBM E-score” value: -0.0228 for the first, 0.0412 for the second.

First: CTCGTTTA
Second: CGTTTCCA
The “PBM E-score” value of the first is lower: -0.0274 for the first, -0.0207 for the second.

Going from AAGATCTT to CTTTTTAA, the “PBM E-score” value falls from -0.242 to -0.256.

First: CGGCGTCA
Second: CTCTGCAG
The “PBM E-score” value of the first is lower: -0.108 for the first, -0.0116 for the second.

Going from AGGCCTTA to TATTATCA, the “PBM E-score” value rises from -0.211 to 0.0625.

First: CAATGACG
Second: ATGTAAGC
The “PBM E-score” value of the first is lower: -0.0381 for the first, -0.0258 for the second.

Compared with CCTAAAGA, GTAATCGA is higher in “PBM E-score” value: -0.24 for the first, -0.00778 for the second.

Going from AGTGGCTA to ACGAACAC, the “PBM E-score” value rises from 0.0701 to 0.0844.

Going from TGGAAACA to GAGATTCA, the “PBM E-score” value falls from 0.0346 to 0.0192.

Compared with AAATCCTG, CACCGTAC is higher in “PBM E-score” value: 0.0104 for the first, 0.105 for the second.

First: CATGCTTA
Second: TCTAATCA
The “PBM E-score” value of the first is lower: 0.145 for the first, 0.23 for the second.

First: GGATTTTA
Second: CTACGTAG
The “PBM E-score” value of the first is lower: -0.214 for the first, -0.0255 for the second.

First: AAGCGTCT
Second: ACGGTGAG
The “PBM E-score” value of the first is lower: -0.251 for the first, 0.234 for the second.

Going from CATCCTGA to CCATGGTA, the “PBM E-score” value falls from 0.242 to 0.225.

Compared with GAGATCGC, ACACGTTG is higher in “PBM E-score” value: -0.0882 for the first, -0.0652 for the second.

Going from AGAAACGA to ATGCCCCG, the “PBM E-score” value falls from 0.00093 to -0.00357.

First: ACATCCCC
Second: CCCCCAAA
The “PBM E-score” value of the first is higher: 0.226 for the first, -0.302 for the second.

First: TACCGCAA
Second: CCTCTGAG
The “PBM E-score” value of the first is lower: 0.105 for the first, 0.147 for the second.

Compared with CTCCGTAA, CGCGACAG is higher in “PBM E-score” value: -0.19 for the first, -0.0867 for the second.

Compared with CGCACAGA, CCCATCTC is higher in “PBM E-score” value: -0.215 for the first, -0.00162 for the second.

First: AAGCGGAG
Second: GTAGGAGA
The “PBM E-score” value of the first is higher: -0.0344 for the first, -0.148 for the second.

Going from AAAGACAG to CCCAGTAG, the “PBM E-score” value rises from -0.00384 to 0.0709.

Compared with GGCATAAA, ACAGTGAA is higher in “PBM E-score” value: -0.105 for the first, 0.0157 for the second.

Compared with GACCTGAC, AGAGGGCG is lower in “PBM E-score” value: 0.161 for the first, -0.0697 for the second.

First: GAGGCCCA
Second: AGCCCCTA
The “PBM E-score” value of the first is lower: -0.161 for the first, -0.104 for the second.

Going from AATGTACC to TGAACTAA, the “PBM E-score” value falls from -0.0492 to -0.134.

Compared with CTCGAGAG, GGATAACC is lower in “PBM E-score” value: -0.0272 for the first, -0.112 for the second.

First: AAGTTATC
Second: CCTACTCA
The “PBM E-score” value of the first is lower: -0.0682 for the first, 0.0944 for the second.

Compared with CGTTTCCC, ACTCCGAG is higher in “PBM E-score” value: 0.0407 for the first, 0.357 for the second.

Going from GCATCTAC to CTGCTCTC, the “PBM E-score” value falls from 0.0888 to -0.138.

Compared with GACGACCC, CGCCGTAC is lower in “PBM E-score” value: 0.0907 for the first, 0.0322 for the second.

First: ACAAAACC
Second: GACAGATC
The “PBM E-score” value of the first is higher: 0.097 for the first, -0.0659 for the second.

Compared with AACTCCCT, CATTTATC is higher in “PBM E-score” value: -0.175 for the first, -0.0956 for the second.

Going from ACCTCGGG to GAGGGTAA, the “PBM E-score” value falls from -0.0373 to -0.0586.
